In one experiment the test system is HSkMC. The experiment can be described thus: cytotoxicity call (relative viability < 0.9). The conditions noted are these: 10 µM.
A further experiment deals with HepG2. The experiment can be described thus: cytotoxicity call (relative viability < 0.9). The conditions noted are these: 10 µM.
In another experiment the test system is S. aureus RN4220. The experiment can be described thus: growth inhibition call (relative growth <= 0.2). The conditions noted are these: 50 µM.

The structures appear in SMILES notation. The list shows a part of the results.

In the case of `C[C@@H]1CN([C@@H](C)CO)C(=O)c2cc(NC(=O)Nc3ccc(F)cc3)ccc2O[C@@H](C)CCCCO[C@H]1CN(C)Cc1ccc(Cl)c(Cl)c1`, the cytotoxicity call with HSkMC and in the experiment with HepG2 was “inactive” in each case. Also, the growth inhibition call in the experiment with S. aureus RN4220 is “inactive”.

Consider `C[C@@H]1CN([C@@H](C)CO)C(=O)c2cc(NS(=O)(=O)c3ccc(F)cc3)ccc2O[C@@H]1CN(C)S(=O)(=O)c1cn(C)cn1`, for which the cytotoxicity call in the experiment with HSkMC and in the experiment with HepG2 was “inactive” each time. Besides, the growth inhibition call with S. aureus RN4220 is “inactive”.

`CC(C)NC(=O)N(C)C[C@@H]1OCCCC[C@@H](C)Oc2ccc(NC(=O)Nc3ccc(F)cc3)cc2C(=O)N([C@H](C)CO)C[C@H]1C`: the cytotoxicity call in the experiment with HSkMC and in the experiment with HepG2 was “inactive” throughout. The growth inhibition call in the experiment with S. aureus RN4220 is “inactive”.

On to `COc1ccc(S(=O)(=O)N2C[C@H](O)COC[C@H]3O[C@@H](CC(=O)NCc4ccc(Cl)c(Cl)c4)CC[C@@H]32)cc1`, for which the cytotoxicity call in the experiment with HSkMC and with HepG2 was “inactive” throughout. The growth inhibition call with S. aureus RN4220 was “inactive”.

On to `C[C@@H]1CN([C@@H](C)CN=[N+]=[N-])C(=O)c2cc(NC(=O)Nc3ccccc3)ccc2O[C@@H](C)CCCCO[C@H]1CN(C)S(=O)(=O)c1ccc(F)cc1`, for which the cytotoxicity call in the experiment on HSkMC is “inactive”. Besides, the cytotoxicity call in the experiment on HepG2 is “active”. Also, the growth inhibition call in the experiment on S. aureus RN4220 is “inactive”.

On to `C[C@@H]1CCCCO[C@H](CN(C)S(=O)(=O)c2ccc(F)cc2)[C@H](C)CN([C@H](C)CO)C(=O)c2cc(NC(=O)C3CCCCC3)ccc2O1`, for which the cytotoxicity call in the experiment with HSkMC and in the experiment on HepG2 was “inactive” in each case. In the experiment with S. aureus RN4220, the growth inhibition call is “inactive”.

For the molecule `C[C@@H]1CN([C@H](C)CO)S(=O)(=O)c2ccc(C#CCN(C)C)cc2O[C@@H]1CN(C)S(C)(=O)=O`, the cytotoxicity call in the experiment on HSkMC and in the experiment on HepG2 was “inactive” each time. In addition, in the experiment on S. aureus RN4220, the growth inhibition call was “inactive”.

`C[C@@H]1CN([C@H](C)CO)C(=O)c2cc(NC(=O)c3ccncc3)ccc2O[C@@H]1CN(C)Cc1ccc(-c2ccccc2)cc1`: the cytotoxicity call with HSkMC and in the experiment on HepG2 was “inactive” throughout. Also, in the experiment with S. aureus RN4220, the growth inhibition call was “inactive”.

As to `C[C@@H]1CN([C@@H](C)CO)C(=O)c2cc(NS(=O)(=O)c3cn(C)cn3)ccc2O[C@H]1CN(C)Cc1ccccc1`, the cytotoxicity call with HSkMC and in the experiment with HepG2 was “inactive” each time. Also, the growth inhibition call in the experiment with S. aureus RN4220 was “inactive”.

Consider `O=C1O[C@H](c2ccccc2)[C@H](c2ccccc2)N2[C@H]1[C@@H](C(=O)N1CCN(c3ncccn3)CC1)[C@]1(C(=O)Nc3ccc(C#CC4(O)CCCCCC4)cc31)[C@H]2c1ccccc1OCCO`, for which the cytotoxicity call with HSkMC and with HepG2 was “inactive” throughout. Moreover, the growth inhibition call with S. aureus RN4220 was “inactive”.

As for `COc1ccc(NC(=O)N(C)C[C@H]2Oc3ncc(C#C[C@H](C)O)cc3C(=O)N([C@H](C)CO)C[C@@H]2C)cc1`, the cytotoxicity call in the experiment with HSkMC and in the experiment with HepG2 was “inactive” in each case. The growth inhibition call in the experiment on S. aureus RN4220 is “inactive”.

`COc1cccc(NC(=O)N(C)C[C@@H]2OCc3ccccc3-c3c(n(C)c4ccccc34)C(=O)N([C@H](C)CO)C[C@H]2C)c1`: the cytotoxicity call in the experiment with HSkMC and in the experiment on HepG2 was “inactive” in each case. In the experiment on S. aureus RN4220, the growth inhibition call was “inactive”.

For the molecule `COCCOC(=O)N1C(=O)[C@@]2(c3cc(C#CC4=CCCCC4)ccc31)[C@H](c1ccc(OCCO)cc1)N1[C@H](c3ccccc3)[C@H](c3ccccc3)OC(=O)[C@H]1[C@@H]2C(=O)NC[C@H](O)c1ccccc1`, the cytotoxicity call in the experiment on HSkMC and in the experiment with HepG2 was “inactive” throughout. Moreover, the growth inhibition call in the experiment on S. aureus RN4220 is “inactive”.

Regarding `O=C(O)[C@H]1C[C@H](O)CN1Cc1ccccc1`, the cytotoxicity call with HSkMC and with HepG2 was “inactive” each time. In addition, the growth inhibition call in the experiment on S. aureus RN4220 is “inactive”.

Consider `CCOC(=O)c1c(CN2CCN(CCOCCO)CC2)n(-c2ccccc2)c2cc(Br)c(O)cc12`, for which the cytotoxicity call in the experiment with HSkMC is “inactive”. The cytotoxicity call in the experiment on HepG2 was “active”. In the experiment with S. aureus RN4220, the growth inhibition call is “inactive”.

Take `CC(C=CC=C(C)C=CC(=O)C1(C)CC(O)CC1(C)C)=CC=CC=C(C)C=CC=C(C)C=CC1=C(C)CC(O)CC1(C)C` (stereo not drawn): the cytotoxicity call in the experiment with HSkMC and in the experiment with HepG2 was “inactive” each time. Further, in the experiment with S. aureus RN4220, the growth inhibition call was “inactive”.

For the molecule `O=C1O[C@@H](c2ccccc2)[C@@H](c2ccccc2)N2[C@@H](c3ccc(OCCO)cc3)[C@]3(C(=O)Nc4ccc(C#CC5(O)CCCCCC5)cc43)[C@@H](C(=O)Nc3nc4ccccc4s3)[C@H]12`, the cytotoxicity call with HSkMC and with HepG2 was “inactive” in each case. In addition, the growth inhibition call in the experiment on S. aureus RN4220 was “inactive”.

With `C[C@@H]1CN([C@@H](C)CO)C(=O)c2cc(NC(=O)Nc3ccc(F)cc3)ccc2O[C@H]1CN(C)Cc1ccc(Oc2ccccc2)cc1`, the cytotoxicity call in the experiment with HSkMC and in the experiment with HepG2 was “inactive” in each case. Also, the growth inhibition call with S. aureus RN4220 was “inactive”.

As for `COc1cccc(-c2ccc3c(c2)O[C@@H](CN(C)C(=O)C2CCOCC2)[C@H](C)CN([C@@H](C)CO)S3(=O)=O)c1`, the cytotoxicity call with HSkMC and in the experiment on HepG2 was “inactive” each time. For the same molecule, in the experiment on S. aureus RN4220, the growth inhibition call is “inactive”.

Regarding `COc1ccc(S(=O)(=O)Nc2ccc3c(c2)C(=O)N([C@H](C)CO)C[C@H](C)[C@@H](CN(C)C(=O)Nc2ccc(F)cc2)OCCCC[C@@H](C)O3)cc1`, the cytotoxicity call in the experiment on HSkMC (human skeletal muscle cells) and in the experiment on HepG2 was “inactive” each time. In addition, in the experiment on S. aureus RN4220, the growth inhibition call was “inactive”.

For the molecule `C[C@H](CO)N1C[C@H](C)[C@@H](CN(C)Cc2cccc3c2OCCCO3)OCc2cnnn2CCCC1=O`, the cytotoxicity call with HSkMC and with HepG2 was “inactive” in each case. Besides, the growth inhibition call in the experiment on S. aureus RN4220 was “inactive”.

For `S=C(NCCCc1cnc[nH]1)NCCCN(Cc1ccc(Cl)c(Cl)c1)c1ccc(Br)cn1`, the cytotoxicity call in the experiment with HSkMC and in the experiment on HepG2 was “active” throughout. Also, the growth inhibition call with S. aureus RN4220 was “inactive”.

For `CCS(=O)(=O)N1C[C@]2(CCN(CC2)C(=O)NC2CCCC2)c2c(n(c3cc(ccc23)OC)C)[C@@H]1CO`, the cytotoxicity call with HSkMC and with HepG2 was “inactive” in each case. The growth inhibition call in the experiment on S. aureus RN4220 was “inactive”.

As to `OCC(S)CS` (stereo not drawn), the cytotoxicity call with HSkMC and with HepG2 was “inactive” in each case. Besides, in the experiment with S. aureus RN4220, the growth inhibition call is “inactive”.

On to `CNCc1nc(C)no1`, for which the cytotoxicity call with HSkMC and in the experiment on HepG2 was “inactive” throughout. In addition, in the experiment with S. aureus RN4220, the growth inhibition call is “inactive”.

Turning to `COc1cccc(NC(=O)N2C[C@H](O)COC[C@@H]3O[C@H](CC(=O)NCCCN4CCOCC4)CC[C@H]32)c1`, the cytotoxicity call with HSkMC and in the experiment on HepG2 was “inactive” in each case. In the experiment on S. aureus RN4220, the growth inhibition call is “inactive”.

The values above are taken from the antibiotic and cytotoxicity screens of Wong et al. (2023).
